Source: PMC6078952
These are yes or no findings as the source states them, for the method shown. Some results given as binding are weak or reduced against the parent protein; the word gives no strength.

Protein sequences, listed by entry. Tags and fused reporters are not part of them. Lines headed by an entry give the natural chain unless they say otherwise; changes in a name come on top. Chains listed by the source or under a name are the forms on record and can include a tag or linker. Residues count along the entry.
UniProt P02452: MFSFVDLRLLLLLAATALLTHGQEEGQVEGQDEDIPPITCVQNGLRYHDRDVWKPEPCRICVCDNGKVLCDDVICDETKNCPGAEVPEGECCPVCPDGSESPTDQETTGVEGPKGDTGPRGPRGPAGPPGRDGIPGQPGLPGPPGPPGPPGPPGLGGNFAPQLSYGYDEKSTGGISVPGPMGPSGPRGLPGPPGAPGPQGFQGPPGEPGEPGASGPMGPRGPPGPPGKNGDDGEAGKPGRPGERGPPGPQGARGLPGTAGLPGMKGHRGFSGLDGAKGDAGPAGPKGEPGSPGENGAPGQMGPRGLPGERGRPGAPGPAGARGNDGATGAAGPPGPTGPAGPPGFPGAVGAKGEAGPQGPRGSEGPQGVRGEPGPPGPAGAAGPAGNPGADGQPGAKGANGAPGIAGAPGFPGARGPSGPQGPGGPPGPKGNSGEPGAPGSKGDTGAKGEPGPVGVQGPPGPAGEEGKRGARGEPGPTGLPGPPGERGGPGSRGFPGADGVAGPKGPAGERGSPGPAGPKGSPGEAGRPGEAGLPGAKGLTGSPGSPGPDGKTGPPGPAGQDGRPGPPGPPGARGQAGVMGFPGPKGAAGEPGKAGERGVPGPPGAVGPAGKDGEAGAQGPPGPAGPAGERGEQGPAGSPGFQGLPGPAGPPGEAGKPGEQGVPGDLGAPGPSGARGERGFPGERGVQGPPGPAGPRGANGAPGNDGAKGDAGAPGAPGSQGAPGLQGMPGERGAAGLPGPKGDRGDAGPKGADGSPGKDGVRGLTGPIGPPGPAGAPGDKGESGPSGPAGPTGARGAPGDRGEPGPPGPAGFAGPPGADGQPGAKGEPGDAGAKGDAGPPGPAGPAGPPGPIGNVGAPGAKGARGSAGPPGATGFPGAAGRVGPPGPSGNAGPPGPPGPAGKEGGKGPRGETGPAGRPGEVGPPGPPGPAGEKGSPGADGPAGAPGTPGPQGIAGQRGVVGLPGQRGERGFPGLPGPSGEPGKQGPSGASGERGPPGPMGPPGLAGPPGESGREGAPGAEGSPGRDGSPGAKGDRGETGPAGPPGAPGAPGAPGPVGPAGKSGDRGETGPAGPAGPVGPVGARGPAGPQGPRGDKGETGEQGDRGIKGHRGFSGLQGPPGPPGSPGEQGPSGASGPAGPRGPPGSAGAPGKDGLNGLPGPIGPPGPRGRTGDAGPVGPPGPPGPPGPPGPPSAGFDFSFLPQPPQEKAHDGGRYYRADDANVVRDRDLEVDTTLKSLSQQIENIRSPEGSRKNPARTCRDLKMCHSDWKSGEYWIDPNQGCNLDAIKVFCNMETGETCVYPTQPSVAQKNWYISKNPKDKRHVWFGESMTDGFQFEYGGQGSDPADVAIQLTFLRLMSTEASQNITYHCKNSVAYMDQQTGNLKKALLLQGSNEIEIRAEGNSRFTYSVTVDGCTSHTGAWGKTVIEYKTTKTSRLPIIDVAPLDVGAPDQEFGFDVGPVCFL
UniProt Q9BXS0, residues 113-654: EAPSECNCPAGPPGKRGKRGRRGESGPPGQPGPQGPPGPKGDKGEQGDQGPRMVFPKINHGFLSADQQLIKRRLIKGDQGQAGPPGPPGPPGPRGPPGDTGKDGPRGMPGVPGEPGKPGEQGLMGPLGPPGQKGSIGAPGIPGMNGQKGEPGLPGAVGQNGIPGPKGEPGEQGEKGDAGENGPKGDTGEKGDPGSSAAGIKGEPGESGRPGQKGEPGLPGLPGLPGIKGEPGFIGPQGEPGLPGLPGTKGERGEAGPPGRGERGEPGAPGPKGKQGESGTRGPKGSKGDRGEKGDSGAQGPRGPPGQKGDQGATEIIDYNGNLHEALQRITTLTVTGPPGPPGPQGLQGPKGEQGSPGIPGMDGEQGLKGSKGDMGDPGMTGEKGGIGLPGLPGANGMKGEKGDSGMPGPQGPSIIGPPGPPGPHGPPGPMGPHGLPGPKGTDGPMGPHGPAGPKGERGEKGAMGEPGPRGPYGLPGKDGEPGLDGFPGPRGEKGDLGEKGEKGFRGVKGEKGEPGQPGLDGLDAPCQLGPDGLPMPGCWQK
UniProt P39060, residues 1572-1754: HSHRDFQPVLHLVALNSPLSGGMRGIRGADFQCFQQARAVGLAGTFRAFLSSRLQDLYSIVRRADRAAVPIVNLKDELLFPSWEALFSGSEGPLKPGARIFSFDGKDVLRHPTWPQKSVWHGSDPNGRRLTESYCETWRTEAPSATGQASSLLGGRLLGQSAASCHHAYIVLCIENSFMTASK
UniProt P13612: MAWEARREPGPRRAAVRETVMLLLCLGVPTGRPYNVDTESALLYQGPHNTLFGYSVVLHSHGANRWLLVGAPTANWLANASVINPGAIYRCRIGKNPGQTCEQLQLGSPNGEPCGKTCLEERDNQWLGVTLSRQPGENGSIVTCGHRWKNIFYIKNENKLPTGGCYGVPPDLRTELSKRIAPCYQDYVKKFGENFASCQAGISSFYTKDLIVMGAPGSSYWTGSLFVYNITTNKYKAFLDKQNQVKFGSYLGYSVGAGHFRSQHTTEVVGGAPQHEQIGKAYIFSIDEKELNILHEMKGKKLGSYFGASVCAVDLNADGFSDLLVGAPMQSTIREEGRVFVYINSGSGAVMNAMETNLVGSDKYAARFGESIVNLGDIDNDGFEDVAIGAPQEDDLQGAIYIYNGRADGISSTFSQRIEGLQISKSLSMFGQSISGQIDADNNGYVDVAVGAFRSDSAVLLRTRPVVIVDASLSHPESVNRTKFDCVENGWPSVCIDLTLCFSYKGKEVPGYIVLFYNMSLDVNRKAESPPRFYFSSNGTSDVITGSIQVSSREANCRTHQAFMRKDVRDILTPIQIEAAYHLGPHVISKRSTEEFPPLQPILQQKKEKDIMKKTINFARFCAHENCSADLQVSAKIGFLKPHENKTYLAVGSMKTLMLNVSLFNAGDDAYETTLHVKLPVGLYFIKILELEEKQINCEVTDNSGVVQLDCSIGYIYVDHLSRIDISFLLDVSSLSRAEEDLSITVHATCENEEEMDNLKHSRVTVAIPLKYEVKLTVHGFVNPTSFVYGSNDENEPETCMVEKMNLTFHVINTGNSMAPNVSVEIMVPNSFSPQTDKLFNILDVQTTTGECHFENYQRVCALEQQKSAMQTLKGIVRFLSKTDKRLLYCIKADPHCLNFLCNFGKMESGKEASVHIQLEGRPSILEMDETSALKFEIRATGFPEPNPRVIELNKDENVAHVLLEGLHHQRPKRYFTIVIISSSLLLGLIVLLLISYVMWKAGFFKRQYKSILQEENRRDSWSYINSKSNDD
UniProt P19137: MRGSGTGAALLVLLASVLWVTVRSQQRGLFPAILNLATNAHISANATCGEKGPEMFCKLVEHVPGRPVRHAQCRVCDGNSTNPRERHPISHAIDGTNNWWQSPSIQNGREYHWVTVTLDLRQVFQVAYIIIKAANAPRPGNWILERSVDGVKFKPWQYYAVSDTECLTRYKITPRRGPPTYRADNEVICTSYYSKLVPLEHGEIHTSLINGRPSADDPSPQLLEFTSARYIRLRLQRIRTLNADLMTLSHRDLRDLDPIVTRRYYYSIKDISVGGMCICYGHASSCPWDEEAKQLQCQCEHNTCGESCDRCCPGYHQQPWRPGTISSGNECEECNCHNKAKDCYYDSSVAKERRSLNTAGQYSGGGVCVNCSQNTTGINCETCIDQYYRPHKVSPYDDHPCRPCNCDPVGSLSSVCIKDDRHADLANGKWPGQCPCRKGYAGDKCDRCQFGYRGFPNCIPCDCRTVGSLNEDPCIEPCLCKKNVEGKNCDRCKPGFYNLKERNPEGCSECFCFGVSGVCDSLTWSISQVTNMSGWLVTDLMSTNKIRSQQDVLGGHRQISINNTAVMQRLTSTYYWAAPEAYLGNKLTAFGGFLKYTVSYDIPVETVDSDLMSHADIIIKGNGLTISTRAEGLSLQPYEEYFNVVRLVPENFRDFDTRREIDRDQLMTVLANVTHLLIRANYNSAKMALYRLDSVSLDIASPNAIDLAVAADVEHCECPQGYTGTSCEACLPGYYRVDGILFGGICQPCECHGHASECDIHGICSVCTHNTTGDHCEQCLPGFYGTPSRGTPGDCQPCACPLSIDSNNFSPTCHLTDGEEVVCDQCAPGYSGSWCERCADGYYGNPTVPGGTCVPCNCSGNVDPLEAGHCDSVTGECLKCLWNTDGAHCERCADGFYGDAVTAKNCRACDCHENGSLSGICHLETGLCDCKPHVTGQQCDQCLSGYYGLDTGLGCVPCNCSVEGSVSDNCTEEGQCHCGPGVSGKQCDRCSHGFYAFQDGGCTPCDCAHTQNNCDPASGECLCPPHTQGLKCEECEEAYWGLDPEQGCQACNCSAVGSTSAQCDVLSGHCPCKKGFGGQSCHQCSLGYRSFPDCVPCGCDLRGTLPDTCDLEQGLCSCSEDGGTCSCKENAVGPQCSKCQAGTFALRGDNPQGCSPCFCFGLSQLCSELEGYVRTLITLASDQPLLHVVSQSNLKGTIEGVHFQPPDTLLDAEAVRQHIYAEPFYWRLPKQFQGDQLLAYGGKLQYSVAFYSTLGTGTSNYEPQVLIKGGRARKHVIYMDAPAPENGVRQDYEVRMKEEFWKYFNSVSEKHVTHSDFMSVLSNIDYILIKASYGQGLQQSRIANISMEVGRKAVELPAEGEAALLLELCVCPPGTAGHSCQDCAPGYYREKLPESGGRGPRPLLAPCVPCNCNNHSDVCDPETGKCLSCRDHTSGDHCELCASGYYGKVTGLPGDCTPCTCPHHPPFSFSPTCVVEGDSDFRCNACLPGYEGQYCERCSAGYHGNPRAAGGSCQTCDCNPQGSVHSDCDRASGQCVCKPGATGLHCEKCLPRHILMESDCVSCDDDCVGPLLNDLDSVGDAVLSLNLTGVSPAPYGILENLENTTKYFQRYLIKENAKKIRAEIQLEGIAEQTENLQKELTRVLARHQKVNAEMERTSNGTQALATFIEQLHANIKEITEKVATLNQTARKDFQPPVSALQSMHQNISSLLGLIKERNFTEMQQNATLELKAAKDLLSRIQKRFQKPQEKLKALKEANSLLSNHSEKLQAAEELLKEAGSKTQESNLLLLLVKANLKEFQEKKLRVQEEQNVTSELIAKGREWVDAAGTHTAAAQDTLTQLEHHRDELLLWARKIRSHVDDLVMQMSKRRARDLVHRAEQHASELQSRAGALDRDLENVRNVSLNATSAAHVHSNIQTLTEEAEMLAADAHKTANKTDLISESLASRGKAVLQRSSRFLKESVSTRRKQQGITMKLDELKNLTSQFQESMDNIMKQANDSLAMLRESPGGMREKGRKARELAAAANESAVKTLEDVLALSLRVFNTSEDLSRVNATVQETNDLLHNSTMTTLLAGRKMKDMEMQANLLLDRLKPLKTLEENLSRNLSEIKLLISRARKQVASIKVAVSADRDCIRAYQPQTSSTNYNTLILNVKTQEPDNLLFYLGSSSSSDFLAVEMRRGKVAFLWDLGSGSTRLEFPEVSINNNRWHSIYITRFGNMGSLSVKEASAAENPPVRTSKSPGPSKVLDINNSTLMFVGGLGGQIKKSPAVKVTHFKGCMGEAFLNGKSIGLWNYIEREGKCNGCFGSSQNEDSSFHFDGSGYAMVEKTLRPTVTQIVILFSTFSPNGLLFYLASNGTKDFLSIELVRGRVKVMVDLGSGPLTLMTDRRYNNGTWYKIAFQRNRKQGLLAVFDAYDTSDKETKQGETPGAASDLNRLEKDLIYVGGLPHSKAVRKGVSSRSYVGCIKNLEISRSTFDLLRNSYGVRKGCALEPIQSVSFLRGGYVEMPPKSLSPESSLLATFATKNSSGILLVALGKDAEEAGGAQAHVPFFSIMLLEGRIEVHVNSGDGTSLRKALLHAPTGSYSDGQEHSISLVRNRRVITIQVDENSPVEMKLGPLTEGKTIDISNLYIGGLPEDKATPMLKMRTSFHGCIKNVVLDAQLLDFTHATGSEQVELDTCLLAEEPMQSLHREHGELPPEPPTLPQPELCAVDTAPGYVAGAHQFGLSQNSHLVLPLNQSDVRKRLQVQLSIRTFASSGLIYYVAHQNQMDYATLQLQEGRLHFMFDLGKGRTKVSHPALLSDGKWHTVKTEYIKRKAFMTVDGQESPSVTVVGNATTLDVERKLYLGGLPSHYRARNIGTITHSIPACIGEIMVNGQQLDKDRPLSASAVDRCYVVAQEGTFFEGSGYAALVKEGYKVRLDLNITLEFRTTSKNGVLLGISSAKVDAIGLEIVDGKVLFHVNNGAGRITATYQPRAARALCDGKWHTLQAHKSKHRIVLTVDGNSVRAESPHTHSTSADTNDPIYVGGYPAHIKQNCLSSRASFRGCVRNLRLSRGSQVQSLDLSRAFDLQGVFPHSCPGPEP
UniProt P34741, residues 19-144: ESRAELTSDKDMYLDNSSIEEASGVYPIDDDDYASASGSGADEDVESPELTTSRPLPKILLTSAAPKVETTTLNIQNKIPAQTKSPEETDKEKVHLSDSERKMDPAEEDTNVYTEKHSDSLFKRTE
Lysyl oxidase propeptide (LOX-PP) (Pro24Leu) (P28300, form named): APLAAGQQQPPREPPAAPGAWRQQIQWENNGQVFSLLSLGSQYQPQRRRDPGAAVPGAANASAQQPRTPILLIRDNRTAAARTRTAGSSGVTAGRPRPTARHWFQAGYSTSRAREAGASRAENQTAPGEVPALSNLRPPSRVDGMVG

What was measured:
Experiment in all cases: SPR; SPR imaging (SPRi, Biacore Flexchip): partners spotted in triplicate on a bare gold chip at 0.06 to 1 mg/ml; purified LOX-PP injected at 2 µM and recirculated for 20 min; PBS with 0.05% Tween 20, 25 °C; both purified
Collagen I = Collagen I (UniProt P02452)
Collagen XXV ectodomain = Collagen XXV ectodomain (UniProt Q9BXS0)
[1] = target: T1, Discoidin domain-containing receptor 2 ectodomain (DDR2) (UniProt Q16832)
T1 sequence: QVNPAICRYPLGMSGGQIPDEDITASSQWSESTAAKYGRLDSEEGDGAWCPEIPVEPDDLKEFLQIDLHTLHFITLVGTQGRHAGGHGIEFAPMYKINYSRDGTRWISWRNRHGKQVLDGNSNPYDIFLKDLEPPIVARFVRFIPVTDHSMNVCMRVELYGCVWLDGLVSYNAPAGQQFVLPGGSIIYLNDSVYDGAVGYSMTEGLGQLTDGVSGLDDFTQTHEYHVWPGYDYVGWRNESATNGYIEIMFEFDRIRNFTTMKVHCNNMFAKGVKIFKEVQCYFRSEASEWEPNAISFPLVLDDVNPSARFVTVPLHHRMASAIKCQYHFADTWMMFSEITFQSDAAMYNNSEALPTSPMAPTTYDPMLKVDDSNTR

[2] = target: Endostatin (expressed in Pichia pastoris) (UniProt P39060)
[3] = target: T2, Extracellular matrix protein 1 (ECM1) (UniProt Q16610)
T2 sequence: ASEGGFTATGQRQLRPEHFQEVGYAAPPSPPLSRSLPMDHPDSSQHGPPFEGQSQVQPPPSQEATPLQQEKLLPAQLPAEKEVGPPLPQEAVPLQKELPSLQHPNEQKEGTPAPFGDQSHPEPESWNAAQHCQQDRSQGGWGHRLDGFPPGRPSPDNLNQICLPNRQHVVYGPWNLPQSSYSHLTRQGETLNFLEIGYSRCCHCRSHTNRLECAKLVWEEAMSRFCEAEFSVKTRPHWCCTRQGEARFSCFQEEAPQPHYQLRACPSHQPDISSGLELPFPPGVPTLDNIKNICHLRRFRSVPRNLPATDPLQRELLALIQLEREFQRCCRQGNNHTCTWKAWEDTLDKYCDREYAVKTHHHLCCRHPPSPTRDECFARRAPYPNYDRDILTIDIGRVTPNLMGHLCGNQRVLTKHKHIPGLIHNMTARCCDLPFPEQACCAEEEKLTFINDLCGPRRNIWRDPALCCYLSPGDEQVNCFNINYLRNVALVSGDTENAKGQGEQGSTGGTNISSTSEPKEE

Integrin α4β1 ectodomain = Integrin α4β1 ectodomain (UniProt P13612)
Laminin-111 = Laminin-111 (UniProt P19137)
Osteoprotegerin = target: T3, Osteoprotegerin (UniProt O00300)
T3 sequence: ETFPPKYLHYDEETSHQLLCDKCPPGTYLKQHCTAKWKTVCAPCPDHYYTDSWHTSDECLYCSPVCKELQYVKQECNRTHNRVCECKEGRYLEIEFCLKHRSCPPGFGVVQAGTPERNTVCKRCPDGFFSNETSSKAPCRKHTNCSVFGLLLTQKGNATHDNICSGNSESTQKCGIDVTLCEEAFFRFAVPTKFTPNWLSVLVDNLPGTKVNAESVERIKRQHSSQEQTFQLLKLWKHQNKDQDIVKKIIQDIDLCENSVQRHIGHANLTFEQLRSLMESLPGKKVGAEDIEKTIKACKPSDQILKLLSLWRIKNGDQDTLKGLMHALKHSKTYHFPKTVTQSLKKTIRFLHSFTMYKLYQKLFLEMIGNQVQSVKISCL

Syndecan-2 ectodomain = Syndecan-2 ectodomain (UniProt P34741)

Lysyl oxidase propeptide (LOX-PP) (Pro24Leu) (from UniProt P28300 22-168) (domain or fragment)
binding (Collagen I): binds | binding (Collagen XXV ectodomain): no binding (tested: 2 µM) | binding [1]: no binding (tested: 2 µM) | binding [2]: no binding (tested: 2 µM) | binding [3]: no binding (tested: 2 µM) | binding (Integrin α4β1 ectodomain): no binding (tested: 2 µM) | binding (Laminin-111): no binding (tested: 2 µM) | binding (Osteoprotegerin): no binding (tested: 2 µM) | binding (Syndecan-2 ectodomain): no binding (tested: 2 µM)
